Source: PubChem BioAssay AID686970 (National Center for Advancing Translational Sciences (NCATS), 2013)
Screen size: about 360,000 compounds; about 6,000 (1.7%) were called active. Inconclusive means that the source gave no clear call. Such entries were picked first, then a sample of the others. The call rests on the fitted dose curve; in most records, active means well fitted cell-killing curve with a large enough effect; inconclusive means small, poorly fitted or top-dose-only effect, or effect the other way; inactive means flat fitted curve, though single readings scatter. Potencies of inconclusive entries are left out as doubtful fits.

assay: qHTS for induction of synthetic lethality in tumor cells producing 2HG: qHTS for the HT-1080-NT fibrosarcoma cell line; details: HT-1080-NT fibrosarcoma viability, CellTiter-Glo ATP luminescence, 48 h; activity, negative = less viability: at 46.1 µM (top of the series) unless noted;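 further: NT is the 2HG producing partner of a matched IDH1 knockdown line; nearly all actives have a fitted effect of over 55% in size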;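 on activity, negative = less viability: 0% = DMSO-treated cells and -100% = media-only wells without cells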
In short: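 HT-1080-NT; 750 cells/well; 5% FBS RPMI; 48 h compound, 37 degrees C; CellTiter-Glo luminescence; curve fitting and curve-class assignment.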
Potency means the concentration at half of the fitted maximal effect; tags describe the fitted curve by direction and shape.

Compound	Potency	activity, negative = less viability
CCC(=C(c1ccc(OC)cc1)c1ccc(OC)cc1)c1cn(CC(O)CN(CCO)CCO)c2ccccc12 (stereo unspecified)	inconclusive [cytotoxic, single point]	
CC(C)CCSc1cc(NCCO)c([N+](=O)[O-])c2nonc12	inconclusive [cytotoxic, single point]	
CC(C)COC(=O)N(C)c1ccc(C(O)(C(F)(F)F)C(F)(F)F)cc1	inconclusive [cytotoxic, single point]	
O=C(Nc1ccc(N2CCN(Cc3ccccc3F)CC2)cc1)c1ccc([N+](=O)[O-])o1	active: 14.6 µM	
O=C1NC[C@H](Cc2ccccc2)N(C[C@@H]2CCCN2C[C@H](Cc2ccccc2)N2C[C@H](Cc3ccccc3)N(CC3CCCCC3)C(=O)C2=O)C1=O	inconclusive [cytotoxic, single point]	
CC(C)(CN1CCC(Cc2ccccc2)CC1)NS(=O)(=O)c1ccccc1		inactive: -2.92%
Nc1nccc(/C=C/c2c(Cl)cccc2Cl)n1	inconclusive [cytotoxic, single point]	
COc1ccc(C[C@H]2CN3C(=NC[C@@H]3Cc3ccccc3)N2CCNC(=O)CCC2CCCCC2)cc1	inconclusive [cytotoxic, single point]	
Cn1c(=O)[nH]c(=O)c2c1nc([N+](=O)[O-])n2Cc1ccccc1	active: 2.59 µM	
C/C(=N\Nc1ccc2nncn2n1)c1ccccn1	inconclusive [cytotoxic, full curve, poor fit]	
O=C(Nc1cccc([N+](=O)[O-])c1)c1ccc([N+](=O)[O-])o1	inconclusive [cytotoxic, single point]	
O=C(NC1CCCC1)c1cnn2c(C(F)(F)F)cc(-c3ccc4c(c3)OCO4)nc12		inactive: 3.51%
N=c1ccn(CC(=O)c2ccc(-c3ccccc3)cc2)cc1	inconclusive [cytotoxic, single point]	
CCOC(=O)C1CCN(c2ncnc3c2oc2ccccc23)CC1	inconclusive [cytotoxic, single point]	
COc1ccc(NC(=O)COc2ccc(-c3nn(C)c(=O)c4ccccc34)cc2)cc1		inactive: -14.3%
CCCn1c(/C=N/Nc2nc3ccccc3[nH]2)nc2ccccc21	inconclusive [cytotoxic, single point]	
Cc1nn(-c2ccccc2)c2c1C1(C(=O)N3c4c(cccc41)C(C)CC3(C)C)C(C#N)=C(N)O2 (stereo unspecified)	inconclusive [cytotoxic, single point]	
O=C(N[C@H]1CCC(=O)N(CCSc2ccc(Br)cc2)CC1)OCc1ccccc1	inconclusive [cytotoxic, single point]	
O=C(O)C1CC=CCC1C(=O)NC1CCCCC1 (stereo unspecified)		inactive: 6.16%
CCCCCCn1c(=O)n2n(c1=O)[C@@H]1CN(S(=O)(=O)c3ccc(C)cc3)C[C@]1(O)[C@@H](OC(=O)Nc1cccs1)C2	inconclusive [cytotoxic, single point]	
COCCNC(=O)C1(C)CCN(C(=O)c2ccc(C(F)(F)F)nc2C)C1 (stereo unspecified)	inconclusive [rising, single point]	
O=C(c1ccoc1)N1CCN(c2cc(-c3ccco3)nc3cc(-c4ccccc4)nn23)CC1	inconclusive [cytotoxic, single point]	

Compound	Potency	activity, negative = less viability
Cc1cc(C)n(-c2ccc(C(=O)Nc3ccc(C)c(S(=O)(=O)N(C)C)c3)cc2)n1	inconclusive [cytotoxic, single point]	
O=C(COC(=O)/C=C/c1cccc(C(F)(F)F)c1)NCc1ccc(F)cc1	inconclusive [rising, partial curve]	
CCOc1ccccc1NC(=O)CSc1nc2cc(O)ccc2c(=O)n1-c1ccc(OC)c(OC)c1	inconclusive [cytotoxic, single point]	
CCCCC(=O)N(C)c1c(CC)nc2c(OCC(=O)C(C)(C)C)cccn12		inactive: 18.5%
COc1ccc(OC)c(S(=O)(=O)N2c3cc(F)ccc3CCC2C)c1 (stereo unspecified)		inactive: -20.9%
Oc1ccc(F)cc1-c1cc(-c2ccc3c(c2)OCCO3)n[nH]1	inconclusive [cytotoxic, single point]	
O=C(Cn1cnc2ccccc21)N/N=C/C(Br)=C/c1ccccc1	inconclusive [cytotoxic, single point]	
COc1ccc(N2CCN(C(=O)c3cc4c(s3)-c3ccccc3OC4)CC2)cc1		inactive: 16.7%
COc1ccc(CNS(=O)(=O)NCc2ccccc2)cc1		inactive: 1.08%
Cc1cccc(-n2c(SCC(=O)N3CC(=O)Nc4ccccc43)nc3ccccc3c2=O)c1	inconclusive [cytotoxic, partial curve]	
CCSc1nsc(NC(=O)Nc2ccccc2Cl)n1		inconclusive: -40.9%
CCc1nc2ccc(C(=O)N3CCN(S(=O)(=O)CC)CC3)cn2c1N(C)Cc1cccs1		inactive: 11%
O=C1/C(=C/c2cccnc2)CCc2c1[nH]c1ccccc21	active: 14.6 µM	
Cc1ccc(S(=O)(=O)CCC(=O)Nc2ccc3nc(C)sc3c2)cc1		inconclusive: 8.89%
COC(=O)[C@]1(Cc2ccccc2)N[C@H](CN(C)C(=O)c2ccc(C)cc2)[C@@H]2C(=O)N(Cc3ccccc3)C(=O)[C@@H]21		inactive: 5.08%
Cc1ccc(C(=O)Nc2sc3c(c2C(=O)O)CCC(C)C3)o1 (stereo unspecified)	inconclusive [cytotoxic, partial curve]	
O=C1CCCC2=C1C1c3ccccc3C(=O)N1c1ccc(C(=O)c3ccccc3)cc1N2 (stereo unspecified)	inconclusive [cytotoxic, partial curve]	
Cc1ccc(SC(=O)c2c([N+](=O)[O-])c(C)nn2C)cc1	inconclusive [cytotoxic, single point]	
O=C(CN1CCN(S(=O)(=O)c2ccccc2)CC1)Nc1ccc([N+](=O)[O-])cc1	inconclusive [cytotoxic, partial curve]	
O=C(NCCc1ccccc1)c1nnc(CS(=O)(=O)c2ccccc2)o1		inactive: -7.57%
COc1cccc(N2CCN(C(=O)c3ccc(CS(=O)c4ccc(C)cc4)o3)CC2)c1 (stereo unspecified)	active: 0.206 µM	
NS(=O)(=O)c1ccc(NC(=S)N2CCN(c3ccc(Cl)c(Cl)c3)CC2)cc1	inconclusive [cytotoxic, single point]	

Compound	Potency	activity, negative = less viability
CNC(=O)c1ccc(NC(=O)C2CCN(S(=O)(=O)c3cccc(C(F)(F)F)c3)CC2)cc1		inactive: -0.129%
COc1ccc(-n2c(O)c(/C=N/NS(=O)(=O)c3cc(C)ccc3C)c3ccccc3c2=O)cc1OC		inactive: -13.9%
O=C(Nc1ccc(S(=O)(=O)N2CCCC2)cc1)c1ccc([N+](=O)[O-])o1	active: 16.4 µM	
COc1ccc(C(=O)N2CCCC(C)(C(=O)NS(=O)(=O)C3CC3)C2)c(OC)c1 (stereo unspecified)		inactive: 21.1%
COc1ccc(C(NC(=O)C2CCN(CCOc3ccc(F)cc3)CC2)c2cccs2)cc1 (stereo unspecified)	inconclusive [cytotoxic, single point]	
Cc1nn(-c2ccccc2)c(Cl)c1/C=C/C(=O)c1ccccc1	inconclusive [cytotoxic, single point]	
OC[C@H]1O[C@@H](n2cnc3c(NC4CCCC4)nc(Cl)nc32)[C@H](O)[C@@H]1O		inactive: -3.83%
CN(C)S(=O)(=O)c1cccc(N=c2scc(-c3ccc4c(c3)NC(=O)CO4)n2CC2CCCO2)c1 (stereo unspecified)	inconclusive [cytotoxic, single point]	
O=C1COc2ccc(S(=O)(=O)N3CCN(c4cccc(C(F)(F)F)c4)CC3)cc2N1	inconclusive [cytotoxic, single point]	
Clc1ccccc1-c1cnc2sc(NCc3ccc4c(c3)OCO4)nn12	inconclusive [cytotoxic, partial curve]	
O=S(=O)(N(Cc1ccccc1)[C@@H](CO)Cc1ccccc1)N(Cc1ccccc1)[C@@H](CO)Cc1ccccc1		inactive: -23.7%
COc1cc(C(O)c2nc(/C=C/c3ccc(C(F)(F)F)cc3)cs2)ccc1F (stereo unspecified)	inconclusive [cytotoxic, single point]	
Cc1ccc(C(=O)NCC(=O)N2CCCC(C(F)(F)F)C2)s1 (stereo unspecified)		inactive: 8.67%
Cc1c(C(=O)Nc2nccs2)sc2nc(-c3cccs3)cc(C(F)(F)F)c12	inconclusive [cytotoxic, partial curve]	
CC(=NCCc1c(C)[nH]c2ccc(OC(F)(F)F)cc12)C1=C(O)CC(c2ccccc2)CC1=O (stereo unspecified)	inconclusive [cytotoxic, partial curve, poor fit]	
Cc1ccc(-n2nc(C)c(/C=N/NC(=O)c3cccs3)c2Cl)cc1	inconclusive [cytotoxic, single point]	
CCN1C(=O)c2cccc3c(S(=O)(=O)N4CCCC4C(=O)O)ccc1c23 (stereo unspecified)	inconclusive [rising, single point]	
Cn1cc([N+](=O)[O-])c(C(=O)Nc2sc3c(c2C#N)CCC3)n1	inconclusive [cytotoxic, full curve]	
COc1cc(Cl)c(C)cc1NC(=O)CNC(C)c1ccccc1OC (stereo unspecified)	inconclusive [cytotoxic, partial curve]	
CC(C)C(=O)NNC(=O)c1cc2sccc2s1		inactive: -8.09%
Clc1ccc(-n2nnnc2Sc2ncnc3sccc23)cc1	active: 20.6 µM	
CCOC(=O)C(=NC1CCS(=O)(=O)C1)NNc1ccc(Br)cc1 (stereo unspecified)	inconclusive [cytotoxic, single point]	
